Measured values from PubChem BioAssay AID624296 (National Center for Advancing Translational Sciences (NCATS), 2012).
Hit rate of the full screen: of about 350,000 compounds, about 9,900 (2.8%) were called active. This list was built around the results that the source calls inconclusive (neither active nor inactive); the mix of calls is not that of the screen. Calls follow the shape of the dose curve; as a rule, active = well fitted activation curve with a large enough effect; inconclusive = small, poorly fitted or top-dose-only effect; inactive = no such curve, though single readings can be large or run the other way. No potency is given beside an inconclusive call; the fits are too rough.

Experiment: A quantitative high throughput screen for small molecules that induce DNA re-replication in MCF 10a normal breast cells. Also: nearly all actives have a fitted effect of over 50% in size.
Details: MCF 10A DNA re-replication, Hoechst nuclear intensity, 48 h; series mostly up to 46.1 µM
Potency is read from the fitted curve at half-maximal effect; tags tell the direction and shape of the fitted curve.

| Compound | Potency |
| --- | --- |
| c1ccc2cc3c(NCCN4CCOCC4)ccnc3cc2c1 | active: 4.61 µM |
| COc1ccccc1C(=O)n1nc(-c2ccco2)nc1SC | inconclusive [activator, single point] |
| O=C(CSc1nc2c([nH]c3ccccc32)c(=O)n1-c1cccc(Cl)c1)N1CCOCC1 | inconclusive [activator, single point] |
| CCOC(=O)N1CCN(C(=O)CS(=O)Cc2nc(-c3ccc(OC)c(OC)c3)oc2C)CC1 (configuration not stated) | inactive |
| COc1ccc(OC)c(C(=O)c2coc3ccc(O)cc23)c1 | inconclusive [activator, single point] |
| CCCCCCCC(=O)NC(Nc1ccc(S(N)(=O)=O)cc1)C(Cl)(Cl)Cl (configuration not stated) | inconclusive [activator, partial curve] |
| CCCCN(CC)S(=O)(=O)c1ccc(C(=O)Nc2nnc(CSC)o2)cc1 | inconclusive [activator, partial curve, poor fit] |
| O=C1NC(c2cccs2)Nc2sc3c(c21)CCCC3 (configuration not stated) | inconclusive [activator, partial curve, poor fit] |
| O=C(c1cc(-c2ccc3c(c2)OCO3)on1)N1CCN(c2ccccc2)CC1 | inactive |
| CCOCCCNC(=S)NCCNc1nc2c(C)cccc2cc1C#N | inconclusive [activator, single point] |
| CN1CC2=Cc3ccccc3OC23Oc2ccccc2C=C3C1 | inconclusive [activator, single point] |
| COc1ccccc1/C=C/C(=O)Nc1ccc2c(c1)OCCO2 | active: 13 µM |
| CC(C)c1ccc(N(C(=O)c2snc(C(N)=O)c2N)C(C(=O)NCC2CCCO2)c2ccc(N(C)C)cc2)cc1 (configuration not stated) | inconclusive [activator, single point] |
| O=[N+]([O-])c1cc(F)c2cccnc2c1O | inconclusive [activator, partial curve, poor fit] |
| CCc1nn(CCCC(=O)NCc2ccco2)c(=O)c2cc3occc3n12 | inactive |
| COCC(C)n1c(C)cc(C(=O)CSc2cc(C)c3ccccc3n2)c1C (configuration not stated) | inconclusive [activator, partial curve, poor fit] |
| Cc1cc(C(=O)OCC(=O)Nc2ncc(C(F)(F)F)cc2Cl)c(C)o1 | inactive |
| CCOc1ccc(/C=N/NC(=O)Cc2csc(Nc3cccc(C(F)(F)F)c3)n2)cc1 | inconclusive [activator, single point] |
| COc1cc(C(=O)NCCNC(=O)C2CCCNC2=O)cc(OC)c1OC (configuration not stated) | inactive |
| CCOC(=O)c1cnc(-n2nc(C)cc2C)nc1Nc1cccc(C(=O)O)c1 | inactive |
| Cc1cc(C(=O)CSc2nnnn2-c2ccccc2)c(C)n1-c1ccc2c(c1)OCO2 | inconclusive [activator, partial curve] |
| CCN(CC)C(=O)CSc1nnc(-c2ccccc2)n1-c1ccccc1 | inactive |
| CCCc1ccc(C(=O)O/N=C(\N)c2ccccn2)cc1 | inconclusive [activator, single point] |
| O=C(Nc1cc(Oc2ccccc2)cc([N+](=O)[O-])c1)C12CC3CC(C1)CC(n1cnc(Cl)n1)(C3)C2 | inactive |

| Compound | Potency |
| --- | --- |
| N#Cc1ccc(CN2CCN(C(=O)c3cccc(S(=O)(=O)N4CCCCCC4)c3)CC2)cc1 | inactive |
| COc1cccc(C(C(=O)NC2CCCC2)N(C(=O)c2ccco2)c2ccccc2)c1OC (configuration not stated) | inactive |
| Cc1ccccc1C(=O)N1CCN(c2ccc([N+](=O)[O-])c(NCc3ccco3)c2)CC1 | inconclusive [activator, partial curve, poor fit] |
| Cc1cccc(N(CC(=O)NC2CCCCC2)C(=O)c2ccc(C)s2)c1 | inconclusive [activator, single point] |
| Nc1cc2c3c(cccc3c1)C(=O)N(CCN1CCCC1)C2=O | inconclusive [activator, full curve, poor fit] |
| CCc1ccc(C(=O)CN(C#N)c2nc(C)cc(C)n2)cc1 | inconclusive [activator, single point] |
| c1cncc(-c2nc(NCC3COc4ccccc4O3)c3ccccc3n2)c1 (configuration not stated) | inconclusive [activator, partial curve, poor fit] |
| CCO/N=C1\C(=O)N(c2ccccc2)c2ccccc21 | inactive |
| CCC(C)[C@H]1CNCCN1CCC12CC3CC(CC(C3)C1)C2 (some centres not stated) | inactive |
| CCOC(=O)c1sc(NC(=O)c2ccco2)c(C#N)c1C | inconclusive [activator, single point] |
| Cc1ccc(NC(=O)[C@@H](C)NC(=O)[C@@H]2Cc3ccccc3CN2)cc1 | inactive |
| COc1ccccc1NC(=S)NC(=O)CCCOc1ccc(Cl)cc1Cl | inconclusive [activator, full curve, poor fit] |
| CCCCCc1c2c(cc(O)c1C(=O)O)OC(=O)c1cc(C(=O)CCCC)c(OC)cc1O2 | inconclusive [activator, single point] |
| Cc1cccc(C)c1NC(=O)CN(C)C(C)C(=O)Nc1ccccc1-c1ccccc1 (configuration not stated) | inactive |
| O=C(CSc1nnnn1-c1ccccc1Cl)Nc1ccc2c(c1)OCCO2 | inactive |
| COc1ccc(C(=O)/C=C2\C(=O)Nc3ccc(Br)cc32)cc1 | active: 7.31 µM |
| Cc1cccc(C(=O)Nc2c(C#N)c(C)c(C)n2Cc2ccccc2)c1 | inactive |
| COc1cc(/C=N/NC(=O)c2ccccc2)ccc1O | inactive |
| C=CCn1c(SCC(=O)c2cccs2)nc2sc(CC)cc2c1=O | inconclusive [activator, partial curve] |
| N#C/C(=C\c1cccc(O)c1)C(=O)Nc1ccc2c(c1)OCCO2 | inconclusive [activator, full curve] |
| Cc1cccc(N=Nc2cnc(N)s2)c1 | inactive |
| Cc1cccc(N=Nc2c(N)n[nH]c2-c2ccc(Cl)cc2)c1 | inconclusive [activator, single point] |
| Cc1ccccc1-n1c(SCC(=O)N/N=C/c2c(C)nn(-c3ccccc3)c2C)nc2ccccc2c1=O | inconclusive [activator, partial curve, poor fit] |
